From patent US20260083855A1 (Hoffmann-La Roche, published 2026)

T1: hu IL2R beta-gamma-Fc (P1AD7029-002) (human, UniProt P14784 27-240; P31785 23-262)
T1 construct: Analyte in all SPR runs; also called human IL2R beta-gamma Fc; recombinant human IL2Rbeta-gamma-Fc heterodimer; not shown: Fc part and any linker of the heterodimer
T1 sequence (looked up) 1: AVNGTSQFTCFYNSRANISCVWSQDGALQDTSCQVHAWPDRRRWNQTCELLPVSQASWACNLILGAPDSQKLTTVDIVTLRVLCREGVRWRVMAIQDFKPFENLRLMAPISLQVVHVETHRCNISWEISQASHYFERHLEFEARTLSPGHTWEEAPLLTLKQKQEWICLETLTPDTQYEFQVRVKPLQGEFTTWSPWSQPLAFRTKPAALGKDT
T1 sequence (looked up) 2: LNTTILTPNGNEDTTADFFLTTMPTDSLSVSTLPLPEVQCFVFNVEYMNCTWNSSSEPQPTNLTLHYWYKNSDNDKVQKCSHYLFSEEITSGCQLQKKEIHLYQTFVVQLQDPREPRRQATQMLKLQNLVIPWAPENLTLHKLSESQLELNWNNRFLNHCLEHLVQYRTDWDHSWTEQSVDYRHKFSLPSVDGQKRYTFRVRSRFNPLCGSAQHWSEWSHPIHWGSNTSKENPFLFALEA

T2: IL-2R on human cells (activated CD4 T cells, PBMC subsets, NK92) (human, UniProt P14784 27-551; P31785 23-369)
T2 sequence (looked up) 1: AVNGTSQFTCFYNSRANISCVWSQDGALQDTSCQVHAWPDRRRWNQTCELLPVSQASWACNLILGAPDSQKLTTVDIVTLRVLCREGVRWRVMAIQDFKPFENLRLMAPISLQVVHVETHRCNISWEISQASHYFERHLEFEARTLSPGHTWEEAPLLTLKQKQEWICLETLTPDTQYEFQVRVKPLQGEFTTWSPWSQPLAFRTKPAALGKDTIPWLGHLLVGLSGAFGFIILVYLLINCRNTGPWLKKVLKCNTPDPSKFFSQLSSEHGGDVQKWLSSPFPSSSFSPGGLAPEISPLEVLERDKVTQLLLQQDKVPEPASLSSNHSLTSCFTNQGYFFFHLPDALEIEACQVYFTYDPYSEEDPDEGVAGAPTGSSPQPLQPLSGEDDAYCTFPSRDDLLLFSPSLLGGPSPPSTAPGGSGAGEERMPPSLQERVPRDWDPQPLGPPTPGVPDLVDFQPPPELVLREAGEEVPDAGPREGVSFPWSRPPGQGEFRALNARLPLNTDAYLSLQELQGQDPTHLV
T2 sequence (looked up) 2: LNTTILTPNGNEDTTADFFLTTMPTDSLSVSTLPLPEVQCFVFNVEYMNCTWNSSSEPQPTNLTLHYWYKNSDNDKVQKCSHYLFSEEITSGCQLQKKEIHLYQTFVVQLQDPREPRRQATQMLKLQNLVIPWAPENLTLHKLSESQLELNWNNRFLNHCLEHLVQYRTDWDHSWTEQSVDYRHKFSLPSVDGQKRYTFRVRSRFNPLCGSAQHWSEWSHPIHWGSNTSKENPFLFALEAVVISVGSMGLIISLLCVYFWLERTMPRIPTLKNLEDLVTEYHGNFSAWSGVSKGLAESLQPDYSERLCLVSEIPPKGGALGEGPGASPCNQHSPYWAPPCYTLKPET

B1: PD1 376 IgG-huIL2v T51P (P1AE0492) (other)
light: DIVMTQSPDSLAVSLGERATINCKASESVDTSDNSFIHWYQQKPGQSPKLLIYRSSTLESGVPDRFSGSGSGTDFTLTISSLQAEDVAVYYCQQNYDVPWTFGQGTKVEIKRTVAAPSVFIFPPSDEQLKSGTASVVCLLNNFYPREAKVQWKVDNALQSGNSQESVTEQDSKDSTYSLSSTLTLSKADYEKHKVYACEVTHQGLSSPVTKSFNRGEC
heavy 1: EVQLLESGGGLVQPGGSLRLSCAASGFSFSSYTMSWVRQAPGKGLEWVATISGGGRDIYYPDSVKGRFTISRDNSKNTLYLQMNSLRAEDTAVYYCVLLTGRVYFALDSWGQGTLVTVSSASTKGPSVFPLAPSSKSTSGGTAALGCLVKDYFPEPVTVSWNSGALTSGVHTFPAVLQSSGLYSLSSVVTVPSSSLGTQTYICNVNHKPSNTKVDKKVEPKSCDKTHTCPPCPAPEAAGGPSVFLFPPKPKDTLMISRTPEVTCVVVDVSHEDPEVKFNWYVDGVEVHNAKTKPREEQYNSTYRVVSVLTVLHQDWLNGKEYKCKVSNKALGAPIEKTISKAKGQPREPQVCTLPPSRDELTKNQVSLSCAVKGFYPSDIAVEWESNGQPENNYKTTPPVLDSDGSFFLVSKLTVDKSRWQQGNVFSCSVMHEALHNHYTQKSLSLSPGK
heavy 2: EVQLLESGGGLVQPGGSLRLSCAASGFSFSSYTMSWVRQAPGKGLEWVATISGGGRDIYYPDSVKGRFTISRDNSKNTLYLQMNSLRAEDTAVYYCVLLTGRVYFALDSWGQGTLVTVSSASTKGPSVFPLAPSSKSTSGGTAALGCLVKDYFPEPVTVSWNSGALTSGVHTFPAVLQSSGLYSLSSVVTVPSSSLGTQTYICNVNHKPSNTKVDKKV[human IgG1 Fc with changes not written out]GGGGSGGGGSGGGGSAPASSSTKKTQLQLEHLLLDLQMILNGINNYKNPKLTRMLTAKFAMPKKAPELKHLQCLEEELKPLEEVLNGAQSKNFHLRPRDLISNINVIVLELKGSETTFMCEYADETATIVEFLNRWITFAQSIISTLT
notes: Immunoconjugate; tested from HEK supernatant only
B2: huPD1-IL2v (w/ huPD1-Lead 0376) (P1AD5438) (other)
light: B1 light
heavy 1: B1 heavy 1 with H438R, Y439F
heavy 2: EVQLLESGGGLVQPGGSLRLSCAASGFSFSSYTMSWVRQAPGKGLEWVATISGGGRDIYYPDSVKGRFTISRDNSKNTLYLQMNSLRAEDTAVYYCVLLTGRVYFALDSWGQGTLVTVSSASTKGPSVFPLAPSSKSTSGGTAALGCLVKDYFPEPVTVSWNSGALTSGVHTFPAVLQSSGLYSLSSVVTVPSSSLGTQTYICNVNHKPSNTKVDKKV[human IgG1 Fc with changes not written out]GGGGSGGGGSGGGGSAPASSSTKKTQLQLEHLLLDLQMILNGINNYKNPKLTRMLTAKFAMPKKATELKHLQCLEEELKPLEEVLNGAQSKNFHLRPRDLISNINVIVLELKGSETTFMCEYADETATIVEFLNRWITFAQSIISTLT
B3: FAP 4B9 IgG-huIL2v_Q126T (P1AE4812) (other)
light: EIVLTQSPGTLSLSPGERATLSCRASQSVTSSYLAWYQQKPGQAPRLLINVGSRRATGIPDRFSGSGSGTDFTLTISRLEPEDFAVYYCQQGIMLPPTFGQGTKVEIKRTVAAPSVFIFPPSDEQLKSGTASVVCLLNNFYPREAKVQWKVDNALQSGNSQESVTEQDSKDSTYSLSSTLTLSKADYEKHKVYACEVTHQGLSSPVTKSFNRGEC
heavy 1: EVQLLESGGGLVQPGGSLRLSCAASGFTFSSYAMSWVRQAPGKGLEWVSAIIGSGASTYYADSVKGRFTISRDNSKNTLYLQMNSLRAEDTAVYYCAKGWFGGFNYWGQGTLVTVSSASTKGPSVFPLAPSSKSTSGGTAALGCLVKDYFPEPVTVSWNSGALTSGVHTFPAVLQSSGLYSLSSVVTVPSSSLGTQTYICNVNHKPSNTKVDKKVEPKSCDKTHTCPPCPAPEAAGGPSVFLFPPKPKDTLMISRTPEVTCVVVDVSHEDPEVKFNWYVDGVEVHNAKTKPREEQYNSTYRVVSVLTVLHQDWLNGKEYKCKVSNKALGAPIEKTISKAKGQPREPQVCTLPPSRDELTKNQVSLSCAVKGFYPSDIAVEWESNGQPENNYKTTPPVLDSDGSFFLVSKLTVDKSRWQQGNVFSCSVMHEALHNHYTQKSLSLSPGK
heavy 2: EVQLLESGGGLVQPGGSLRLSCAASGFTFSSYAMSWVRQAPGKGLEWVSAIIGSGASTYYADSVKGRFTISRDNSKNTLYLQMNSLRAEDTAVYYCAKGWFGGFNYWGQGTLVTVSSASTKGPSVFPLAPSSKSTSGGTAALGCLVKDYFPEPVTVSWNSGALTSGVHTFPAVLQSSGLYSLSSVVTVPSSSLGTQTYICNVNHKPSNTKVDKKV[human IgG1 Fc with changes not written out]GGGGSGGGGSGGGGSGGGGSGGGGSAPASSSTKKTQLQLEHLLLDLQMILNGINNYKNPKLTRMLTAKFAMPKKATELKHLQCLEEELKPLEEVLNGAQSKNFHLRPRDLISNINVIVLELKGSETTFMCEYADETATIVEFLNRWITFATSIISTLT
notes: Immunoconjugate: anti-FAP IgG1 PG LALA knob/hole, IL2v variant on the knob heavy chain; also called FAP-IL2vQ126T
B4: PD1 376 IgG-huIL2v Q126T (P1AF2142) (other)
light: B1 light
heavy 1: B1 heavy 1
heavy 2: EVQLLESGGGLVQPGGSLRLSCAASGFSFSSYTMSWVRQAPGKGLEWVATISGGGRDIYYPDSVKGRFTISRDNSKNTLYLQMNSLRAEDTAVYYCVLLTGRVYFALDSWGQGTLVTVSSASTKGPSVFPLAPSSKSTSGGTAALGCLVKDYFPEPVTVSWNSGALTSGVHTFPAVLQSSGLYSLSSVVTVPSSSLGTQTYICNVNHKPSNTKVDKKV[human IgG1 Fc with changes not written out]GGGGSGGGGSGGGGSAPASSSTKKTQLQLEHLLLDLQMILNGINNYKNPKLTRMLTAKFAMPKKATELKHLQCLEEELKPLEEVLNGAQSKNFHLRPRDLISNINVIVLELKGSETTFMCEYADETATIVEFLNRWITFATSIISTLT

Assays:
[1] = molecular target: T1, hu IL2R beta-gamma-Fc (P1AD7029-002); assay: SPR, supernatant captured by anti-human Fab (142 RU), single injection of IL2Rbg-Fc
Source text: (§1) Bulk refractive index differences were corrected for by subtracting the response obtained on the reference flow cell 1.

[2] = molecular target: T2, IL-2R on human cells (activated CD4 T …); assay: cell-based or functional assay
[3] = molecular target: T2, IL-2R on human cells (activated CD4 T …); assay: cell-based or functional assay; remark: listed apart in the source
[4] = molecular target: T2, IL-2R on human cells (activated CD4 T …); assay: cell-based or functional assay; design: AUC of STAT5-P on PD1+ T cells / AUC of STAT5-P on PD1-blocked T cells: unit not given beside the values
[5] = molecular target: T3, human PD-1 on activated CD4 T cells (human, UniProt Q15116 25-288); assay: cell-based or functional assay; design: AUC of STAT5-P on PD1+ T cells / AUC of STAT5-P on PD1-blocked T cells: unit not given beside the values
[6] = molecular target: T2, IL-2R on human cells (activated CD4 T …); assay: cell-based or functional assay; remark: listed apart in the source
[7] = molecular target: T3, human PD-1 on activated CD4 T cells; assay: cell-based or functional assay
T3 sequence (Q15116 25-288 limits assumed): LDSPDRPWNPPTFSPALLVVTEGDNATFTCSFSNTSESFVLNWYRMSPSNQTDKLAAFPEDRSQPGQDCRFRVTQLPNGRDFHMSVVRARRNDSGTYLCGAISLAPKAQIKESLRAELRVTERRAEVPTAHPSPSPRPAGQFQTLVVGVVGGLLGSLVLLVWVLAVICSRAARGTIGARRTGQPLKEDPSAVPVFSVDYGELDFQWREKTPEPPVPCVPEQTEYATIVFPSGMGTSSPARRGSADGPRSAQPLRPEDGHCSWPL

[8] = molecular target: T1, hu IL2R beta-gamma-Fc (P1AD7029-002); assay: SPR, captured via anti-human Fc, IL2Rbg-Fc analyte, 1:1 Langmuir
Source text: as §1

[9] = molecular target: T2, IL-2R on human cells (activated CD4 T …); assay: cell-based or functional assay; remark: listed apart in the source

Binder	binding result [1]	Potency reduction versus PD1-IL2v (MFI) [2]	Potency reduction versus PD1-IL2v (frequency) [2]	Percentage of internalization (0.6 nM, activated CD4 T cells, 3 h at 37 C) [3]	AUC of STAT5-P on PD1+ T cells [4]	AUC of STAT5-P on PD1-blocked T cells [4]	Potency reduction vs PD1-IL2v [4]	Cis-delivery: fold increase in EC50, EC50 [with PD1bl]/EC50 [PD1+] [5]	Potency reduction vs PD1-IL2v on PD-1+ LAG-3+ T cells [6]	Cis-delivery: fold increase in EC50, EC50 [PD1/LAG-3 bl.]/EC50 [PD1+/LAG-3+] [7]	Kd [8]	koff [8]	kon [8]	fold decrease in STAT5-P potency against untargeted IL2v (FAP-IL2v) [9]
B1	no binding (tested: 300 nM)	–	–	–	–	–	–	–	–	–	–	–	–	–
B2	–	1 fold	1 fold	71.1%	221	124	1 fold	18.9 fold	1 fold	158 fold	–	–	–	–
B3	–	44.7 fold	82.1 fold	76.6%	–	–	–	–	–	–	45 nM	0.000737 s⁻¹	16600 M⁻¹ s⁻¹	6.5 fold
B4	–	1.39 fold	1.5 fold	–	188	71.2	1.57 fold	56.5 fold	10 fold	305 fold	–	–	–	–

Where a chain is given by its changes, count along the chain named. Numbers in names are those of the source.
